In publication PMC4336329 (PLoS ONE, 2015):
In all, about 310,000 compounds went through this assay and about 2,200 (0.71%) showed an effect of 50% or more. Effects have a minus sign here. This is one part of the list.

biological target: human ether-à-go-go-related gene (hERG) potassium channel (human, UniProt Q12809); assay: primary screen, population patch clamp on CHO cells stably expressing hERG
Sequence (Q12809 whole entry, looked up): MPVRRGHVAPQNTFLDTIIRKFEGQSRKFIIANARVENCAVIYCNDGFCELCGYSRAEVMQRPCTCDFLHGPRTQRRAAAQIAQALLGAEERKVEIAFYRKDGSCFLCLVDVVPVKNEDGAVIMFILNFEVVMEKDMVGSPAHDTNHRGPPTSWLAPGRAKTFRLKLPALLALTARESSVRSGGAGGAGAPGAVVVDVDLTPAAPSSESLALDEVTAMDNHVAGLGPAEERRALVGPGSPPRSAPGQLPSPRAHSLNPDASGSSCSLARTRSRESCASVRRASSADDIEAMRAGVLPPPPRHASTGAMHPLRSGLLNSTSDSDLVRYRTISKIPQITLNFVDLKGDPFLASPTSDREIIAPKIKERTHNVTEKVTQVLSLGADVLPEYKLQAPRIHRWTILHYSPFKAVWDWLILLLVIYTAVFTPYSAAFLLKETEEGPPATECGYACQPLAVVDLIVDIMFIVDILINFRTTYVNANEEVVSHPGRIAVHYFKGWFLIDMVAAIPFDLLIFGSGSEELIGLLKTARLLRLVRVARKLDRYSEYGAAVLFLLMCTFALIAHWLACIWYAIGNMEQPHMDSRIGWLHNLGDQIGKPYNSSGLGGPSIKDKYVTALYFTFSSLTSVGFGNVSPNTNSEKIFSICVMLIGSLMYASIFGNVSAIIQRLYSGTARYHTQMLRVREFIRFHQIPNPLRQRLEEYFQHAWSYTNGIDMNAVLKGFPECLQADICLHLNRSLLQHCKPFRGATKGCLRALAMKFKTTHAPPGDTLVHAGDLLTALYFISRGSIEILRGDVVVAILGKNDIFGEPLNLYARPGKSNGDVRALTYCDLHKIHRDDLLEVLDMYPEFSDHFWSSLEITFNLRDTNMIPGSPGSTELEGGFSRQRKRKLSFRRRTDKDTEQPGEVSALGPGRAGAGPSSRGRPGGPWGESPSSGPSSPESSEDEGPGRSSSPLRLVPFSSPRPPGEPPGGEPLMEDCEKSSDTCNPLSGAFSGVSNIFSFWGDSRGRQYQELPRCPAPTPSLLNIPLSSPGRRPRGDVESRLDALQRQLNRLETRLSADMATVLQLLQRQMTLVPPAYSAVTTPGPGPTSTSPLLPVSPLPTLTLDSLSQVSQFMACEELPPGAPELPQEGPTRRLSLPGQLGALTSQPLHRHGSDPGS

Structure (SMILES)	hERG current change (%, negative = inhibition) at 1uM
COc1ccc(NC(=O)/C(=C/c2ccc(OC(C)=O)c(OC)c2)NC(C)=O)cc1	9.71%
Cc1oc2c(CN3CCCCC3)c(O)ccc2c(=O)c1-c1ccc(Cl)cc1	-7.86%
Cc1noc(C)c1COc1ccccc1C(=O)N1CCN(S(=O)(=O)c2ccccc2C(F)(F)F)CC1	6.15%
CCOc1nc(NC2CCCCC2)nc(NC(C)(C)C)n1	2.49%
CC[C@H](C)[C@@H](C(=O)NCCCCCCCCCCC(=O)N1CCN(C(=O)OC(C)(C)C)CC1)n1cc(CCCCCNC(=O)OC(C)(C)C)nn1	8.67%
NCC(=O)c1cccc2ccc[n+]([O-])c12	17.3%
O=[N+]([O-])c1ccc(-c2nc(NCc3ccccc3)c3ccccc3n2)cc1	8.85%
COc1ccc(-c2csc(Cc3nnc(N4CCOCC4)n3-c3ccccc3)n2)cc1OC	-6.32%
CCOC(=O)C1NN=C(C(=O)c2ccccc2)C1c1ccccc1 (centres unmarked)	5.62%
Cl.NCCCCCc1nnc(SC/C=C/c2ccccc2)o1	-5.01%
COC1CCN(Cc2cn(Cc3ccccc3)nc2-c2cc3ccccc3o2)CC1	1.32%
O=C(OCC(=O)N(C1CCCCC1)C1CCCCC1)c1cnccn1	6.31%
CC(=O)c1cnc2scnn2c1=O	15.6%
O=C(Nc1ccccc1)N1CC=C(c2ccccc2)CC1	2.74%
COc1cc2c(cc1OC)C(c1ccc(N(C)C)cc1)CC(=O)N2 (centres unmarked)	5.18%
CCN(CC)S(=O)(=O)c1ccc(NC(=O)CCN2C(=O)C3CC=CCC3C2=O)cc1 (centres unmarked)	8.12%
S=c1[nH]cc(-c2ccccc2)n1-c1ccccc1Cl	15%
O=C(O)c1ccc2c(=O)n(-c3ccccc3F)c(=S)[nH]c2c1	4.52%
O=C(CCc1nc2ccccc2c(=O)[nH]1)NCCN1C(=O)S/C(=C\c2ccccc2Cl)C1=O	2.28%

Structure (SMILES)	hERG current change (%, negative = inhibition) at 1uM
Brc1csc(C=Nc2ccc3c(c2)OCCOCCOCCOCCO3)c1	-78.1%
CCCCCCCc1nc2nc(C)c(Br)c(=O)n2[nH]1	16.2%
CCCCCCn1c(=O)c(C(=O)Nc2c(C)n(C)n(-c3ccccc3)c2=O)c(O)c2ccccc21	12.9%
CC(C)(C)NC(=O)C(=O)NCc1ccncc1	10.4%
Cc1ccc2oc(NC(=O)N3CCOCC3)cc(=O)c2c1	12.6%
Cc1nonc1NC(=O)CSc1nnnn1-c1ccccc1	18.5%
O=C(CN(Cc1ccc(Br)cc1)S(=O)(=O)c1ccccc1)NCC1CCCO1 (centres unmarked)	11.8%
CCCCN(C(=O)c1ccc(S(=O)(=O)N(CC)CC)cc1)c1c(N)n(CCC)c(=O)[nH]c1=O	16.5%
C/C(NC(=O)c1ccccc1F)=C1\C(=O)C[C@@H]2[C@H]1C2(C)C	-3.44%
Cc1cccn2c(CN3CCCC(c4ccccc4)C3)c(C(=O)N3CCOCC3)nc12 (centres unmarked)	-53.3%
COc1ccc(NC(=O)NNC(=O)C(C)Oc2ccc3ccccc3c2)cc1OC (centres unmarked)	17.9%
O=c1nc(N2CCOCC2)ccn1Cc1ccc(Br)cc1	11.3%
CCCC1=C(C(=O)OCC)C(c2ccccc2OCC)NC(=O)N1C (centres unmarked)	2.52%
CCN(CC)C1CCN(C(=O)c2ccc(OC3CCN(CCc4ccccc4)CC3)cc2)C1 (centres unmarked)	16%
Cc1nnc(Sc2cc(C(=O)NC3CC3)c3ccccc3n2)s1	3.64%
CC(C)(C)c1nc2ccccc2c2nnc(SCC(=O)Nc3nccs3)n12	17.3%
Cc1cc(C(=O)N/N=C/c2ccccc2Br)no1	7.3%
CC12CN3C(O)C(C)(C1)CC(C)(C2)C3O (centres unmarked)	4.88%
CC(=C/C(=O)O)/C=C/c1ccc(Cl)o1	5.53%

Structure (SMILES)	hERG current change (%, negative = inhibition) at 1uM
CCOC(=O)CSc1snnc1C	19.2%
CCCCS(=O)CC(COc1ccc(Cl)cc1)OC(=O)c1ccccc1 (centres unmarked)	-1.33%
O=C(COC(=O)c1ccccc1C(=O)N1CCN(c2ccc(F)cc2)CC1)NCc1ccccc1	-32.7%
CCOC(=O)c1cnn(-c2ccccc2)c1NC(=O)c1ccccc1C	6.89%
CC(=O)c1ccc(NC(=O)Cc2ccsc2)cc1	14.1%
C=CCNC(=O)c1cc(-c2cccnc2)nc2ccccc12	3.45%
O=C1NCCN(Cc2cccc(Oc3ccccc3)c2)C1CC(=O)N1CCCO1 (centres unmarked)	12.1%
COc1ccc(OC)c(NC(=O)C2CC(=O)N(c3ccccc3)C2)c1 (centres unmarked)	7.94%
COc1ccc(CCNC(=O)Cn2c(=O)n(-c3ccc(F)cc3F)c(=O)c3sccc32)cc1OC	6.36%
Cc1cccc(NC(=O)Cn2cnc3ccc(S(=O)(=O)N4CCC(C)CC4)cc3c2=O)n1	5%
Cc1cccc(OCC(=O)N2CCC(N3CCOCC3)CC2)c1	8.35%
CCN(CC)CCSc1nnc2c3cc(C)ccc3n(Cc3ccccc3)c2n1	-81.6%
CCOc1ccc(CCNC(=O)c2ccc(CS(=O)Cc3ccc(Cl)cc3)o2)cc1OCC (centres unmarked)	2.83%
C/C(=N/Oc1nc(C)cc(C)n1)c1ccc(F)cc1	8.49%
CCOC(=O)Nc1cccc(OCC(=O)Nc2ccccc2OCC)c1	-5.15%
COc1cc2c(cc1OC)C(COc1cccc(C(F)(F)F)c1)NCC2 (centres unmarked)	3.04%
O=C(Cc1cccc(NC(=O)C2CCCN(C(=O)C3CCC3)C2)c1)Nc1cccc(C(=O)N2CCCC2)c1 (centres unmarked)	9.32%
CN(C)c1nc2c(c(N)nn2-c2ccc(Cl)cc2)c(=O)o1	0.233%
